Some of the results follow.

The test relates to PF3D7_0420300 AP2 domain 1 (GST-tagged). Briefly: gcPBM binding intensity (ln(normalized median fluorescence intensity)); higher = stronger DNA binding. Summed up: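 Using an Agilent 4 × 180k array, primer-extended double-stranded 36-bp intergenic genomic probes and negative controls were exposed for 1 h to GST-fused P. falciparum DNA-binding domains expressed in E. coli. Binding was carried out in 1× PBS with 1% milk, 0.2 mg/ml BSA, 0.5% salmon testes DNA and 0.03% Triton X-100, and protein was detected with Alexa488 anti-GST antibody and a 488 nm scan. Binding intensity is the highest Masliner-normalised natural-log median intensity across replicate spots of either probe orientation.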
For the sequence “TTTTATCATATTTATTGTACACATAATATACATATC [XGTACX_site1145]”, the “gcPBM binding intensity (ln)” value came to 9.37.
Next, “TGTATGTTTATTTATCGTACATATATATATATATAT [XGTACX_site7315]”: 9.35.
Next, “TTTTATATATTATATACACACATATATATATATATA [CACACA_site2999]”: 9.29; “CACGTGTAAATAGTTTTACAATATCTCGATATGTAT [CACACA_negctrl_site785]”: 9.14; “GGATATATGAAACATATTGAAAAACCGTTTAGTACA [CACACA_negctrl_site132]”: 9.31.
For “GTAATTATATACATACGTACATACACATATGTATAT [XGTACX_site4149]”, the “gcPBM binding intensity (ln)” value is 9.32.
For the sequence “TTATATGAAAATTATTGTACAATCTATAAAAAAAAT [XGTACX_site4194]”, the “gcPBM binding intensity (ln)” value came out at 9.15.
As to “TTACTATGTAAACACACATGCAATATATGTTAAGCC [TGCATGCA_site253]”, the “gcPBM binding intensity (ln)” value stood at 9.32.
Regarding “TAATAATCAAACTATACACACATAAATAAATATATA [CACACA_site156]”, the “gcPBM binding intensity (ln)” value is 9.68.
Under “AAGGAAATAAGAAAAAGTACACATAAGTATATAACA [XGTACX_site1173]” stands 9.53.
Turning to “GTATATATACATAAATGTACATATATATAAAAAATG [XGTACX_site3271]”, the “gcPBM binding intensity (ln)” value stood at 9.26.
“AATATATAAGTCTACTGTACCCAAAATAAAATTTAT [XGTACX_site8727]”: the “gcPBM binding intensity (ln)” value stood at 9.18.
On to AAATAAGAACATAGAATGCACTTTTTTTTTTTTTCC, for which the “gcPBM binding intensity (ln)” value worked out at 9.04.
Next, “ATATATTTATATATTGCACACAAAAAAAAAAAAAAA [CACACA_site8468]”: 9.04; “AACATTATAAGACACACACACACATATATAAATATA [CACACA_site6622]”: 10.3; “ATATATCCAAATAGATTACATATATATATATAGATA [TGCATGCA_negctrl_site277]”: 9.22.
For the sequence “AAATATAATAAAATGACACACGCATATATATATATA [CACACA_site8900]”, the “gcPBM binding intensity (ln)” value stood at 9.38.
In the case of “TATTGCCCTTGACACACACACATATAAATAAATATA [CACACA_site7220]”, the “gcPBM binding intensity (ln)” value was found to be 9.84.
For “TAAGGTTAAATAATATGTACATATTATTATATATAT [XGTACX_site6953]”, the “gcPBM binding intensity (ln)” value stood at 9.16.
Next, “TTATGGGACTCAAATACATGCAAAAATATTTTTAAG [TGCATGCA_site559]”: 9.05; “AAATATGTATATATATATATATATATATATATATAT [GTGCAC_negctrl_site335]”: 8.99.
In the case of “TTAAACCGTGGGAGCACACACACACCCAGACACATA [CACACA_site4337]”, the “gcPBM binding intensity (ln)” value came out at 9.86.
With “AATAAAGCAATAAATACACACATATATATATATATA [CACACA_site2934]”, the “gcPBM binding intensity (ln)” value amounted to 9.31.
Next, “TATATAAAAAATAGGTGGTCAACTTAAATATTTTAT [XGTACX_site4495]”: 9.31; “AGTTATGCATCTTAGGTGCTATGCCCAATTTATTTT [GTGCAC_site9977]”: 9.31; “AAAAAAAAAAAAAATGCACACATATATTTCCATATA [CACACA_site8416]”: 9.33.
For “TTGCCTTAAAAAGGAACACACATGCTTTTTTTAGTT [CACACA_site938]”, the “gcPBM binding intensity (ln)” value amounted to 9.37.
On to “AACTTACTCTTTACAAGTACGTAAAAGAAATAGAAA [XGTACX_site1782]”, for which the “gcPBM binding intensity (ln)” value was determined as 8.95.
Turning to “GTAGTAATAAATCTAGTGCATTATATATAACAAAAA [GTGCAC_site9803]”, the “gcPBM binding intensity (ln)” value is 9.33.
With “TTTTTTTCTTTTTTTTGTACTCATACATACTATCAT [XGTACX_site607]”, the “gcPBM binding intensity (ln)” value is 9.25.
For “AAAATATATCAAAATAGTACATAATTTTTTAAGAAT [XGTACX_site3515]”, the “gcPBM binding intensity (ln)” value is 9.17.
Turning to “AAAAATGTGCACACGCGTACACACAAAAAAAGAAAA [XGTACX_site4097]”, the “gcPBM binding intensity (ln)” value came to 9.76.
Under “TGTACGAGTCGTAGAGTGCAGTCTGGAGAAACGTAC [GTGCAC_site9682]” stands 9.24; under “TATATACGTAATAGTAGTACTTTAAAATGCGGAAAT [XGTACX_site4597]”, 9.44; under “ATAAATAACTTTTAAATACACACGTAAAATATATTG [CACACA_site3302]”, 9.43.
With “ATTTATATTATGAGGAGTACAATACTTATAGATGTA [XGTACX_site7510]”, the “gcPBM binding intensity (ln)” value was 9.18.
Take “GATAGACACGTGCACACATGCAATACTTTATTCAGT [TGCATGCA_site778]”: the “gcPBM binding intensity (ln)” value stood at 9.56.
Take “AAAAAAGATATATAAACACACATATTTATATACACA [CACACA_site6866]”: the “gcPBM binding intensity (ln)” value amounted to 9.53.
As for “ATATACATTTTAAATTTTAATGTAACCCATGGGAGA [CACACA_negctrl_site588]”, the “gcPBM binding intensity (ln)” value was 9.04.
As to “TGAACCCACAAATCACGTACATATATATACACGTGT [XGTACX_site7739]”, the “gcPBM binding intensity (ln)” value was determined as 9.28.
Next, “TTTAACAACTATTTCTGTACACATTTTTATATAATT [XGTACX_site4917]”: 9.47; “TTAAATATCCATATTTCACACATTTCGATATATATA [CACACA_site4208]”: 9.21.
“ACTGTACTATAAAATACACACATATAAATATAAATA [CACACA_site3009]”: the “gcPBM binding intensity (ln)” value was determined as 9.62.
As to “CCTAAATAAATGGACACACACATATTTATATTTATA [CACACA_site6789]”, the “gcPBM binding intensity (ln)” value stood at 9.67.

The values are drawn from the supplement of paper PMC11417369.
